Measurements reported in PubChem BioAssay AID757 (NMMLSC, 2007).
Hit rate of the full screen: of about 190,000 compounds, about 520 (0.27%) were called active. Inconclusive results, whose numbers are uncertain, are shown with a selection of clear calls.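 The calls were made as follows: active = GTP binding activity at least 20 points away from the 100% control level, either lower or higher; inconclusive = compound flagged as likely green fluorescent, judged across all proteins; inactive = the rest.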

target: Ras-related C3 botulinum toxin substrate 1 (Homo sapiens) (UniProt P63000); test: wildtype Rac1 GTP binding modulators, primary screen, biochemical, GST-Rac1 beads, flow cytometry, multiplex (AID 757); settings: fluorescent GTP binding, at 10 µM, actives lie on both sides, 0 = cold GTP competed, 100 = untreated

Structure (SMILES) | GTP binding activity (% of control)
O=c1cc(CO)oc(CN2CCN(c3ccccc3)CC2)c1O | inconclusive: 108%
C=CCn1c(SCC(N)=O)nnc1-c1cccc(Br)c1 | inconclusive: 105%
CC(=O)Nc1ccc(N=Cc2c(O)c(C(=O)Nc3ccccc3)cc3ccccc23)cc1 | inconclusive: 115%
CCOC(=O)c1sc(NC(=O)c2cc(S(=O)(=O)N3CCOCC3)ccc2C)nc1C | inactive: 102%
COc1cc(NC(=O)c2cc3c(C)nc4ccccc4c3o2)cc(OC)c1OC | inconclusive: 91%
C/C(O)=C(/C=NCC(=O)O)C(=O)Nc1nccs1 | inactive: 99%
C/C(=N\NC(=O)c1cc(C)oc1C)c1ccc(N2CCOCC2)cc1 | inconclusive: 95%
Cc1cc(-c2ccc(Cl)cc2)n2nc(N)nc2n1 | inconclusive: 96%
COc1ccc(-c2c(-c3ccc(O)cc3O)n[nH]c2C)cc1OC | inconclusive: 97%
COc1ccc(CN=C2Nc3ccccc3CS2)cc1 | inconclusive: 107%
COC(=O)c1sccc1NC(=S)N1CCN(c2cc(C)ccc2C)CC1 | inactive: 103%
CC(CCc1ccccc1)NS(=O)(=O)c1ccccc1 (stereo not drawn) | inactive: 107%
Cc1cc(C)c(C(=O)CN2C(=O)NC3(CCC(C)CC3)C2=O)cc1C (stereo not drawn) | inconclusive: 94%
COc1ccc(NC(=O)c2cc(S(=O)(=O)N(Cc3ccccc3)c3ccccc3)ccc2Cl)cn1 | inconclusive: 103%
Cc1cc(OC(F)F)ccc1NC(=O)Nc1ccc([N+](=O)[O-])cc1 | inactive: 101%
CC(C)Sc1n[nH]c2nc3c(c(=O)n12)C1(CCCC1)Cc1ccccc1-3 | inconclusive: 100%
O=CN1CCN(C(=O)c2ccccc2F)CC1 | inconclusive: 91%
CC(=O)Nc1ccc(NC(=O)COC(=O)CCc2nc3ccccc3s2)cc1 | inconclusive: 95%
N#Cc1nc(Cc2ccccc2)oc1NCCN1CCOCC1 | inconclusive: 100%
CCN(C#N)c1nc(NC(C)C)nc(NC(C)(C)C)n1 | inconclusive: 101%
COc1cc2[nH]c(=S)n(CC3CCCO3)c(=O)c2cc1OC (stereo not drawn) | inactive: 104%
Cc1ccc2[nH]c(=O)c(CN(C(=O)c3cccs3)c3ccccc3)cc2c1 | inconclusive: 104%
Cc1cccc2sc(N(CCCN(C)C)C(=O)c3nc4ccccc4s3)nc12 | inconclusive: 101%
Cc1cccc(N/N=C(\C#N)S(=O)(=O)C(C)(C)C)c1 | inconclusive: 100%

Structure (SMILES) | GTP binding activity (% of control)
CC(=O)c1ccc(OCCCC(=O)n2nnc3ccccc32)cc1 | inactive: 93%
CCC(=O)N1c2ccc(S(=O)(=O)CCC(=O)Nc3nccs3)cc2CC1C (stereo not drawn) | inconclusive: 105%
O=S(=O)(N/N=C\c1cccnc1)c1ccccc1 | inconclusive: 220%
CCCNC(=O)Cn1c(=O)/c(=C\c2ccc(-c3ccc([N+](=O)[O-])cc3)o2)s/c1=C\C(=O)C(C)(C)C | inconclusive: 123%
COC(=O)c1c(NC(=O)CSc2nnnn2-c2ccccc2)sc2c1CCC(C)C2 (stereo not drawn) | inconclusive: 89%
COCCN(C(=O)CCc1nnc(CCc2c[nH]c3ccccc23)o1)C(C)C | inactive: 96%
Cc1cc(OCC(=O)Nc2ccncc2)ccc1Br | inconclusive: 90%
COc1cc(C(=O)OCC(=O)Nc2sccc2C(N)=O)cc(OC)c1OC | inconclusive: 96%
COc1ccccc1NC(=O)CSc1ccc2nnc(-c3cccnc3)n2n1 | inconclusive: 79%
O=Cc1cn(CC(O)CN2CCCCC2)c2ccccc12 (stereo not drawn) | inconclusive: 99%
CCN(CC)C(=O)Cn1cc(C(=O)C(=O)NCc2ccco2)c2ccccc21 | inactive: 93%
O=C(N/N=C/c1ccc(-c2ccccc2[N+](=O)[O-])o1)c1cncc(Br)c1 | active: 72%
Cn1c(=N)c(S(=O)(=O)c2ccc(F)cc2)cc2c(=O)n3ccccc3nc21 | inconclusive: 81%
COc1cc(O)cc2occ(-c3ccc(O)cc3)c(=O)c12 | inconclusive: 90%
CCN(CC)S(=O)(=O)c1cccc(-c2n[nH]c(=S)n2/N=C/c2ccc(C(=O)OC)cc2)c1 | inconclusive: 82%
COc1ccccc1NC(=O)CN(C)S(=O)(=O)c1cc(C)ccc1OC | inconclusive: 100%
Cc1[nH]c2ccccc2c1[C@H]1[C@@H](CC#N)C1(C)C | inconclusive: 104%
COc1cccc(CN2CCNC(=O)C2CC(=O)NCc2cc(C(C)C)no2)c1 (stereo not drawn) | inconclusive: 92%
[O-]/C(=C(\C(=S)NCc1ccccc1)[n+]1ccccc1)c1ccc(Cl)cc1 | inactive: 95%
CC1(C(=O)NCc2ccc(Cl)c(Cl)c2)Oc2cccnc2NC1=O (stereo not drawn) | inactive: 100%
O=C(Oc1ccc(C(=S)N2CCOCC2)cc1Br)c1ccccc1F | inconclusive: 92%
Cc1sc2nc(-c3ccncc3)[nH]c(=O)c2c1-c1ccccc1 | inconclusive: 89%
CSc1ccccc1C(=O)NCc1ccc(C)cc1 | inconclusive: 93%
O=C(Oc1coc(CSc2ncccn2)cc1=O)c1cccs1 | inactive: 95%

Structure (SMILES) | GTP binding activity (% of control)
Cn1c(SCC(N)=O)nnc1C1CCN(C(=O)NCc2ccccc2)CC1 | inconclusive: 105%
CCOc1ccc(CCNS(=O)(=O)c2cccc3nsnc23)cc1OCC | inconclusive: 104%
O=C(O)c1ccc(/C=N/Nc2ccc(C(F)(F)F)cn2)cc1 | inconclusive: 92%
O=C1CCCN1C(=O)CCC(=O)N1CCCC1=O | inconclusive: 106%
O=C(OCC(=O)N1CCN(C(=O)c2ccco2)CC1)c1cc(=O)c2ccccc2o1 | inconclusive: 103%
COC(=O)c1ccc(C2C(Oc3ccccc3)C(=O)N2CCc2ccc(F)cc2)cc1 (stereo not drawn) | inconclusive: 104%
COc1cc(C(=S)NCc2ccccc2)cc(Br)c1O | active: 79%
CC1Sc2ccc(C(=O)O)cc2NC1=O (stereo not drawn) | inconclusive: 97%
O=C(c1ccccc1NS(=O)(=O)c1cccc([N+](=O)[O-])c1)N1CCOCC1 | inconclusive: 108%
O=C(C[n+]1cccc2ccccc21)c1ccc(NC(=O)c2ccccc2)cc1 | inconclusive: 120%
COc1ccc(N2CC(C(=O)N/N=C/c3cc([N+](=O)[O-])ccc3O)CC2=O)cc1 (stereo not drawn) | inconclusive: 93%
O=C(c1cc(-c2ccncc2)nc2ccc(Br)cc12)N1CCN(c2ccccn2)CC1 | inconclusive: 93%
Cn1c(=O)c2c(ncn2CC(O)CNc2cccc(Cl)c2)n(C)c1=O (stereo not drawn) | active: 124% [activator]
COc1ccc(-c2c[n+]3c4n2CCCCC4=C(c2ccccc2)C3)cc1 | inconclusive: 108%
O=C(Nn1c(O)c(C=C2N=c3ccccc3=N2)sc1=S)c1ccccc1 | inconclusive: 96%
Cc1cc(C)n2nc(SCC(=O)N/N=C/c3cccc(Br)c3)nc2n1 | inconclusive: 89%
NC(=O)Cn1nc([N+](=O)[O-])nc1Oc1ccccc1C(=O)N1CCOCC1 | inconclusive: 90%
CCCCOC(=O)NC1CCS(=O)(=O)C1 (stereo not drawn) | inconclusive: 104%
CNC(=S)NNC(=O)c1noc(C)c1C(=O)N1CCN(C(c2ccccc2)c2ccccc2)CC1 | inactive: 98%
O=C(c1ccco1)N1CCN(c2cc(N3CCOCC3)c(F)cc2[N+](=O)[O-])CC1 | inconclusive: 94%
Cc1ccc(S(=O)(=O)O/N=C2/CCCc3occc32)cc1 | inconclusive: 106%
COc1ccccc1NC(=O)Nc1cccnc1 | inactive: 98%
COc1ccc(CNc2ccccc2SC)cc1OC | inconclusive: 104%
O=S(=O)(/N=C(\Nc1ccc(F)cc1)C(F)(F)F)c1ccccc1 | inconclusive: 103%

Structure (SMILES) | GTP binding activity (% of control)
COc1ccc(-c2c(O)c(C#N)c(-c3ccccc3)n(-c3ccc(OC)cc3)c2=O)cc1 | inconclusive: 92%
CSCCC(=O)Nc1cc(S(=O)(=O)N2CCOCC2)ccc1N1CCN(C)CC1 | inconclusive: 92%
CCCCCCNc1cc2n(c(=O)n1)CCc1cc(OC)c(OC)cc1-2 | inconclusive: 80%
CSc1nc(O)cc(=O)n1-c1ccc(F)cc1 | inactive: 93%
S=C1NCCOCCOCCNC(=S)N2CCOCCOCCN1CCOCCOCC2 | inactive: 100%
CSc1ccc(/C=N/NC(=O)c2ccccc2Cl)cc1 | inactive: 97%
NC(=O)C1CCN(C(=S)NCCc2ccccc2)CC1 | inactive: 100%
Cc1ccc(-c2nnc(Nc3ccccc3)o2)cc1 | inconclusive: 105%
CCOc1ccc(NC(=O)c2cc(F)c(F)cc2Cl)cc1OCC | inactive: 97%
COc1ccccc1NC(=O)c1ccccc1C(=O)O | inconclusive: 101%
Cc1nn(CCCC(=O)O)c(C)c1[N+](=O)[O-] | inactive: 101%
O=C(Nc1cccc(O)c1)c1cccc(S(=O)(=O)N2CCCC2)c1 | inconclusive: 87%
Cc1ccc(-c2ccc(/C=N/NC(=O)CN3CCCC3)o2)cc1Cl | inconclusive: 118%
O=Cc1cn(CC(=O)N2CCc3ccccc32)c2ccccc12 | inactive: 100%
CC1CCc2onc(C(=O)NCc3ccco3)c2C1 (stereo not drawn) | inconclusive: 106%
Cc1c(C2OC(=O)C3(CCCCC3)C(=O)C2(C)C)c(=O)n(-c2ccccc2)n1C (stereo not drawn) | inconclusive: 104%
NS(=O)(=O)c1cccnc1Nc1c(Cl)cccc1Cl | inconclusive: 134%
CC(CNC(=O)CC(C)(C)C)NC(=O)CC(C)(C)C (stereo not drawn) | inconclusive: 100%
Cc1ccc(-c2nnc(SCC(=O)N/N=C/c3ccc(C)s3)n2-c2ccccc2)cc1 | inconclusive: 100%
CCCNC(=O)c1cc2nc(-c3ccccc3)cc(C(F)(F)F)n2n1 | inconclusive: 107%
O=C(C1CCN(c2ncnc3c2sc2cccc(F)c23)CC1)N1CCOCC1 | inactive: 103%
